# Laboratory results reported in PubChem BioAssay AID651820 (National Center for Advancing Translational Sciences (NCATS), 2012).
# Values joined by “and” are separate entries in the source; they are usually repeats but may differ in a detail not shown here. Identical values can stand only once. The whole screen tested about 340,000 compounds, of which about 12,000 (3.5%) were called active. This list was built around the results that the source calls inconclusive (neither active nor inactive); the mix of calls is not that of the screen. Calls come from the whole dose curve; as a rule, active = well fitted inhibition curve with a large enough effect; inconclusive = small, poorly fitted or top-dose-only effect, or another doubt; inactive = no such curve, though single readings can be large or run the other way. Potencies beside an inconclusive call are fits to weak or partial responses and may not hold up.
# Experiment: qHTS Assay for Inhibitors of Hepatitis C Virus (HCV)
# Conditions: Huh7.5.1 HCVcc-Cre (HCVcc is cell-culture hepatitis C virus) infection, luciferase reporter, 44 h; series mostly up to 41.8 µM
# How it was run: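 1,000 cells/well; 4 h culture; + compound; + HCVcc-Cre (~0.5 moi); 44 h; luciferase substrate, RT 15 min; read 15 sec.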
# Potency is the fitted concentration of half-maximal effect; tags give direction and shape of the fitted curve.
row,Compound,Potency
1,O=C(Cc1csc(NC(=O)Nc2cccc(Cl)c2)n1)NCc1cccnc1,inactive
2,Cc1ccc(S(=O)(=O)NCCC(=O)NC2CCC(C)CC2)cc1 (stereo unspecified),inactive
3,CC(=O)c1nnn(-c2cccc([N+](=O)[O-])c2)c1C,inactive
4,Cc1ccc(C(=O)N2CCCC(C(=O)c3ccc(Oc4ccccc4)cc3)C2)cn1 (stereo unspecified),"inconclusive: 22.4 µM [inhibitor, single point]"
5,CC1CCCCC12NC(=O)N(CC(=O)NNC(=O)c1ccc(Br)cc1)C2=O (stereo unspecified),inactive
6,O=C(Nc1ccccc1Cl)c1ccn[nH]1,"inconclusive: 11.2 µM [inhibitor, partial curve]"
7,O=c1c2ccccc2ncn1Cc1ccco1,inactive
8,COc1ccc(C(=O)/C=C(\C)Nc2ccc3c(c2)OCO3)cc1,"inconclusive: 31.6 µM [inhibitor, single point]"
9,COC(=O)c1c(NC(=O)Cc2cccs2)sc2c1CCC(C)C2 (stereo unspecified),"inconclusive: 2.24 µM [inhibitor, full curve]"
10,Cn1cnc([N+](=O)[O-])c1Oc1ccccc1,"inconclusive: 28.2 µM [inhibitor, single point]"
11,CCN(CC)CCN(Cc1cc2ccc(C)cc2[nH]c1=O)C(=O)Nc1ccc(Cl)cc1,"inconclusive: 31.6 µM [inhibitor, single point]"
12,CCc1ccc2oc(C(=O)Nc3nonc3CC)c(C)c2c1,"inconclusive: 31.6 µM [inhibitor, single point]"
13,CN(C)CCCNC(=O)CC(c1ccc(F)cc1)c1ccco1 (stereo unspecified),inactive
14,Cc1c(C)c2ccc(OCC(=O)NC(Cc3ccc(Cl)cc3)C(=O)O)cc2oc1=O (stereo unspecified),"inconclusive: 0.794 µM [inhibitor, full curve]"
15,CC(=O)c1sc(NC(=O)c2cc(-c3ccccc3)nn2-c2ccccc2)nc1C,"inconclusive: 11.2 µM [inhibitor, partial curve]"
16,COc1ccc2[nH]cc(C(=O)CCl)c2c1,"inconclusive: 22.4 µM [inhibitor, single point]"
17,Cc1cc(NC(=O)CSc2nc(C(C)(C)C)nc3ccccc23)no1,"inconclusive: 1.58 µM [inhibitor, partial curve, poor fit]"
18,CCOc1ccc(NC(=S)N2CCC(NC(=O)C3CCCCC3)CC2)cc1,inactive
19,Cc1n[nH]c(C)c1CCCCOc1ccc([N+](=O)[O-])cc1,"inconclusive: 12.6 µM [inhibitor, partial curve]"
20,CC(C)c1ccccc1OCC(=O)Nc1ccc2[nH]ncc2c1,active: 22.4 µM
21,COc1ccc(NC(=O)c2cc(S(=O)(=O)N3CCc4ccccc43)cn2C)c(OC)c1,"inconclusive: 22.4 µM [inhibitor, single point]"
22,CSc1ccc2c(c1)C(N1CCN(C)CC1)Cc1ccccc1S2 (stereo unspecified),"inconclusive: 11.2 µM [inhibitor, partial curve] and inconclusive: 11.2 µM [inhibitor, partial curve, poor fit]"

row,Compound,Potency
1,Cc1ccc(Nc2cc(C)nc3ccc(C)cc23)cc1,"inconclusive: 31.6 µM [inhibitor, single point]"
2,Cn1c(=O)c2c(SCC(=O)N3CCCc4ccccc43)nc(CC(C)(C)C)nc2n(C)c1=O,"inconclusive: 5.62 µM [inhibitor, single point]"
3,COc1ccc(CC(=O)O/N=C(\N)c2ccc(Br)cc2)cc1OC,"inconclusive: 25.1 µM [inhibitor, single point]"
4,COc1ccc(/C=N/NC(=O)c2ccccc2OCc2ccccc2)c(OC)c1,active: 12.6 µM
5,O=C(Nc1ccc(OC(F)F)c(Cl)c1)Nc1ccc2c(c1)OCO2,active: 17.8 µM
6,COCCNC(=O)Cc1c(C)c2c(cc(C)c3c(C(C)(C)C)coc32)oc1=O,"inconclusive: 7.94 µM [inhibitor, partial curve]"
7,COc1ccc(OC)c(NC2=NC3(CCCCC3)N=C(N)N2)c1,"inconclusive: 12.6 µM [inhibitor, partial curve]"
8,Cc1cccc(C(=O)OCC(=O)Nc2c(C)nn(-c3ccccc3)c2C)c1O,"inconclusive: 5.01 µM [inhibitor, single point]"
9,CCOC(=O)c1c(NC(=O)c2ccoc2C)sc(C)c1C,"inconclusive: 1.58 µM [inhibitor, partial curve]"
10,Cc1sc(NC(=O)c2ccccc2)c(C(c2ccccn2)N2CCN(CCO)CC2)c1C (stereo unspecified),"inconclusive: 31.6 µM [inhibitor, single point]"
11,COc1ccc(NC(=O)c2ccc(S(=O)(=O)N3CCCCC3)cc2)cc1OC,"inconclusive: 28.2 µM [inhibitor, single point]"
12,Cc1cccc(C)c1NC(=O)CN1CCN(C(=O)c2ccc(OCc3cn4ccccc4n3)cc2)CC1,inactive
13,Cc1ccc(S(=O)(=O)N2CCC(C(=O)Nc3ccccc3N3CCCC3)CC2)c(C)c1,"inconclusive: 31.6 µM [inhibitor, single point]"
14,O=C(NC(c1ccc(Cl)cc1)c1c(O)ccc2ccccc12)c1ccccc1 (stereo unspecified),"inconclusive: 10 µM [inhibitor, partial curve]"
15,Cc1ccc(C(=O)CSC2=C(C#N)C(c3ccco3)C3=C(CCCC3=O)N2)cc1 (stereo unspecified),active: 25.1 µM
16,O=C(NC1CCCC1)c1cccc2c1C(=O)c1ccc(N3CCCCC3)cc1S2(=O)=O,"inconclusive: 28.2 µM [inhibitor, single point]"
17,CCOC(=O)c1ccccc1NC(=O)CSc1ccc(-c2ccccn2)nn1,"inconclusive: 22.4 µM [inhibitor, single point]"
18,O=C(O)CCC(=O)Nc1ccc(-c2nnc(-c3ccco3)o2)cc1,inactive
19,O=C(CSc1ncccn1)N/N=C/c1cccc(OC2CSC2)c1,inactive
20,CCCOC1CCCN(C(=O)CCc2nnc(CCCCc3ccccc3)o2)C1 (stereo unspecified),"inconclusive: 25.1 µM [inhibitor, single point]"
21,Cc1ccc(C(=O)NCc2ccc3c(c2)OCO3)cc1S(=O)(=O)N1CCCCC1,"inconclusive: 12.6 µM [inhibitor, single point] and inconclusive: 6.31 µM [inhibitor, full curve, poor fit]"
22,COc1ccc(NS(=O)(=O)c2ccc(Oc3cccc(C(=O)O)c3)cc2)cc1,inactive

row,Compound,Potency
1,Cc1c(C(=O)OC2CCCC2)[nH]c2c1C(=O)CC(c1ccco1)C2 (stereo unspecified),"inconclusive: 10 µM [inhibitor, partial curve]"
2,CCOC(=O)C1(Cc2ccccc2)CCCN(C2CCCC2)C1 (stereo unspecified),inactive
3,COc1cc([N+](=O)[O-])ccc1NC(=S)NC(=O)CC(C)(C)C,"inconclusive: 22.4 µM [inhibitor, single point]"
4,O=C(CNC(=O)c1ccc(OC(F)F)cc1)Nc1cccc(S(=O)(=O)N2CCCC2)c1,"inconclusive: 31.6 µM [inhibitor, single point]"
5,Fc1cccc(Cc2noc(CN3CCOCC3)n2)c1,inactive
6,CCOc1ccc(C(O)c2nccn2Cc2ccccc2)cc1 (stereo unspecified),inactive
7,CCOC(=O)C1CCN(c2c(NCc3ccc(C(=O)NCCC(C)C)cc3)c(=O)c2=O)CC1,"inconclusive: 2.51 µM [inhibitor, full curve]"
8,CCOc1ccc(OCC)c(NC(=O)C2CCN(S(=O)(=O)c3c(C)noc3C)CC2)c1,"inconclusive: 25.1 µM [inhibitor, single point]"
9,CCN(C(=O)CN1C(=O)NC(c2ccccc2)(c2ccc(C)c(C)c2)C1=O)C1CCS(=O)(=O)C1 (stereo unspecified),"inconclusive: 11.2 µM [inhibitor, partial curve]"
10,CCOc1ccc(-c2nc(S(=O)(=O)c3ccccc3)c(NC)o2)cc1,inactive
11,O=C(NCCCCc1ccccc1)C1CC(c2ccccc2C(F)(F)F)=NO1 (stereo unspecified),"inconclusive: 5.62 µM [inhibitor, single point]"
12,COc1ccc(CNC(=O)[C@@H]2CC=C[C@@H]3CCN(Cc4ccc(Cl)c(Cl)c4)C(=O)[C@@H]32)cc1,"inconclusive: 12.6 µM [inhibitor, single point]"
13,COc1ccc(N2C(=O)[C@@H]3[C@H](C2=O)[C@H]2c4ccccc4C=CN2[C@@H]3C(C)=O)cc1,inactive
14,N#Cc1sc2nccc(Nc3ccccc3)c2c1N,"inconclusive: 22.4 µM [inhibitor, single point]"
15,C/C=C/c1ccc(OCC(=O)N(C)CC(=O)Nc2ccc(F)cc2)c(OC)c1,"inconclusive: 31.6 µM [inhibitor, single point]"
16,COc1cccc(-n2nnnc2SCC(=O)Nc2ccc3c(c2)OCCO3)c1,"inconclusive: 10 µM [inhibitor, partial curve]"
17,COc1ccc2ccccc2c1/C=N/NC(=S)Nc1cc(S(=O)(=O)N2CCOCC2)ccc1N1CCOCC1,"inconclusive: 10 µM [inhibitor, partial curve]"
18,O=C(COc1cccc(Cl)c1)Nc1nc(-c2ccc(S(=O)(=O)N3CCOCC3)cc2)cs1,"inconclusive: 35.5 µM [inhibitor, partial curve]"
19,CC(C)(C)OC(=O)NCCCC[C@H](NC(=O)c1nc[nH]c1C(=O)NCc1ccc(CNC(=O)OC(C)(C)C)cc1)C(=O)OC(C)(C)C,"inconclusive: 22.4 µM [inhibitor, single point]"
20,COc1ccc(C(=O)CC(Nc2ccc([N+](=O)[O-])cc2)c2ccc(Cl)cc2)cc1 (stereo unspecified),"inconclusive: 22.4 µM [inhibitor, single point]"
21,Cc1sc2nc3c4ccccc4c(NCc4ccco4)nn3c(=O)c2c1C,inactive
22,Cc1ccc(-c2cc(=O)c3cc(C)ccc3[nH]2)cc1,"inconclusive: 25.1 µM [inhibitor, single point]"
